This is one part of the list.

The experiment relates to T1, C. trachomatis L2/434/Bu expressing GFP (CTL2-GFP).
T1 construct: L2/434/Bu GFP intracellular growth in HeLa cells
More on the design: species or system HeLa; C. trachomatis total inclusion area by high-content imaging, normalised to DMSO. Particulars: total inclusion area; 28.5 h, 10 µM; inhibitor. In outline: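 Post-fluorescence-read fixation, DNA staining with Hoechst and high-content imaging; GFP inclusion area and number per well, and nuclei counts, used as proxies for bacterial growth and host viability.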
For the compound `Cc1nc(C(=O)N2CCC3(CCCCOc4ccccc4C(=O)NCCNC3=O)CC2)co1` [CBK292089], the “% of control remaining” value is given as 110.65.

As to `Cc1cccc(CNc2nccnc2-c2cccs2)c1` [CBK036808], the “% of control remaining” value was determined as 96.7377.

As to `CNCS(=O)(=O)C(F)(F)S(=O)(=O)N(C)C` [CBK018820], the “% of control remaining” value is 99.823.

Consider `CC(C)CNC(=O)C1CCN(C(=O)c2cccc(F)c2)CC1` [CBK304338], for which the “% of control remaining” value came to 57.1444. With `O=C(O)c1ccccc1C(=O)Nc1c(-c2ccccc2)nc2ccccn12` [CBK287041], the “% of control remaining” value stood at 88.6911. For `COc1cccc2ncn(C(C)c3nc(C)sc3C)c(=O)c12` (stereo not shown) [CBK306570] the value was 83.3706; for `CC(C)Nc1nc2cc(Cl)c(Cl)cc2nc1OCc1cccnc1` [CBK115743], 84.1538. With `COC(=O)c1c(NC(=S)Nc2cccc(S(=O)(=O)N3CCOCC3)c2)sc2c1CCC2` [CBK267054], the “% of control remaining” value was 102.346. For `CCOc1ccc(-c2csc(NC(=O)CC)n2)cc1` [CBK287764] the value was 85.0698; for `Cc1cc(COC(=O)Nc2ccc3nc(C)ccc3c2)cc(C)n1` [CBK200127], 88.585. `CC(C)c1ccc(/C=C/C(=O)NCc2ccc(C#N)cc2)cc1` [CBK149642]: the “% of control remaining” value is on record as 98.3502.

`Cc1cc(S(=O)(=O)NC(=O)CC2CCOc3ccccc32)c(C)o1` (stereo not shown) [CBK304499]: the “% of control remaining” value is recorded as 47.2378. For `COC(=O)CN1C(=O)N2CCCN=C2c2ccc(Cl)cc21` [CBK284402] the value was 77.225; for `Cc1oc(-c2ccccc2)nc1CCOc1ccc(NC(=O)c2ccc(Cl)cc2Cl)c(C(=O)O)c1` [CBK000168D], 80.2539. In the case of `COc1ccc(C(O)Cn2c(=N)n(CCN3CCCCC3)c3ccccc32)cc1` (stereo not shown) [CBK262930C], the “% of control remaining” value was 52.5517.

Consider `COc1cccc(-c2cc3c(=S)[nH]ccn3n2)c1` [CBK288437], for which the “% of control remaining” value is recorded as 71.4362. Consider `CC(C)CNc1nc2c(c(=O)n(Cc3ccccc3)c(=O)n2C)n1Cc1ccccc1` [CBK293946], for which the “% of control remaining” value is given as 90.5919. For `Cc1cc(C2CCCCCN2Cc2c(C)nn(C)c2C)no1` (stereo not shown) [CBK284846] the value was 106.483; for `CC(C)c1cccc(C(C)C)c1OCC(O)CN1CCCCC1` (stereo not shown) [CBK003079T], 119.656; for `CC(=O)N1CCc2ccc(NC(=O)c3cncc(-c4ccc(C(=O)N5CCOCC5)cc4)c3)cc21` [CBK160217], 104.755. For the compound `CN1C(=O)COc2ccccc2C/C=C/C[C@@H]2[C@H]1CCCN2C(=O)CNS(C)(=O)=O` [CBK292079], the “% of control remaining” value worked out at 116.647. For `Cc1ccc(C(=O)N2C[C@H]3CC[C@](O)(c4ccc(F)cc4)[C@H]3C2)o1` [CBK285267] the value was 87.0719. Under `Cn1ncc(N2CCC(CNC(=O)Cc3ccc(O)c(Cl)c3)C2)cc1=O` (stereo not shown) [CBK307689] stands 61.06. On to `CS(=O)(=O)N1CC2(CCN(Cc3nc4ccccc4[nH]3)CC2)c2ccccc21` [CBK126672], for which the “% of control remaining” value is on record as 87.9041.

On to `COc1ccc(OC[C@@H]2C3CCC(C3)N2C(=O)C2CC2)cc1` (stereo partly shown) [CBK284602], for which the “% of control remaining” value is recorded as 83.1594.

As for `CC(C)(C)OC(=O)N1CCCC(C(=O)NCCc2ccccn2)C1` (stereo not shown) [CBK304281], the “% of control remaining” value is recorded as 79.0778. Under `O=C(NCCCn1ccnc1)c1cc2ncc(Br)cn2n1` [CBK277080] stands 44.7613; under `COc1ccc([C@@]23CC[C@@H](NC(=O)c4ccc(-c5ccccc5)cc4)CC2N(C)CC3)cc1OC` (stereo partly shown) [CBK074973T], 28.1343. Under `CC(=O)NCc1cccc(-c2cc(CO)cnc2-c2ccc(Cl)cc2)c1` [CBK161445] stands 68.2799; under `CCNc1ncc(C(=O)NC(CCn2ccnc2)c2ccccc2)cn1` (stereo not shown) [CBK307066], 65.017. Under `COc1ccccc1-c1nccnc1NCc1ccc(OC(F)(F)F)cc1` [CBK036761] stands 90.7606. For the compound `COc1ccc(CCNS(=O)(=O)c2cc([N+](=O)[O-])ccc2C)cc1OC` [CBK267412], the “% of control remaining” value is 86.1916. Consider `CN(CC1COCCO1)C(=O)c1cc(Cn2ccc3ccccc32)[nH]n1` (stereo not shown) [CBK307673], for which the “% of control remaining” value worked out at 83.7187. Turning to `O=S(=O)(c1ccccc1)N1C[C@@H]2CCCCN(CC3CC3)[C@@H]2C1` [CBK285501], the “% of control remaining” value is listed as 76.8492. Regarding `O=C(Nc1ccccc1[N+](=O)[O-])c1ccc(Cl)c(S(=O)(=O)N2CCC(C(=O)O)CC2)c1` [CBK265180], the “% of control remaining” value amounted to 91.3625.

With `Cc1cccc(C(C)(C)C)c1OCCNCCN` [CBK265058G], the “% of control remaining” value is 104.562.

With `Cc1ccc(CSCCNS(=O)(=O)c2cccc([N+](=O)[O-])c2)cc1` [CBK267864], the “% of control remaining” value is recorded as 76.4791. Under `CNC(=O)c1oc(-c2ccc(OC)cc2)c(-c2ccc(OC)cc2)c1C(=O)NC` [CBK001956] stands 84.543; under `Cc1c(C(c2ccc3ccccc3c2)c2c(C)n(C)n(-c3ccccc3)c2=O)c(=O)n(-c2ccccc2)n1C` [CBK261692], 73.6098. For `CCCCC(=O)N(C)c1c(CC)nc2c(OCCn3cccc3)cccn12` [CBK147785] the value was 120.919.

Regarding `CCCCCCN(CCN1CCOCC1)C(=O)Nc1cc(C)on1` [CBK305147], the “% of control remaining” value is 78.4373.

Turning to `N#Cc1ccc(CN2CCN(S(=O)(=O)c3ccc(-n4cnc(Cl)c4Cl)cc3)CC2)cc1` [CBK062972], the “% of control remaining” value was 78.7107. For `Cc1ccccc1Nc1nc(N)nc(CN2CCN(C)CC2)n1` [CBK304217] the value was 70.9558. As to `O=[N+]([O-])c1ccc2c(c1)C(N1CCOCC1)/C(=C/C1(O)CCCCC1)O2` (stereo not shown) [CBK263200], the “% of control remaining” value worked out at 35.7614. Under `Cc1nc(C)c(-c2csc(Nc3ccc(S(N)(=O)=O)cc3)n2)s1` [CBK263292B] stands 76.8938. As to `Cn1nc(C2CCCCC2)cc1[C@H]1CN2CC[C@H]1C[C@@H]2CNC(=O)c1ccco1` [CBK289106], the “% of control remaining” value is recorded as 104.537. In the case of `CN(C)CCN(Cc1ccccc1)C(=O)NCc1cccnc1` [CBK145048], the “% of control remaining” value is 102.239. Under `Cc1cc2c(=O)n(Cc3ccco3)c(SCc3nc4ccccc4[nH]3)nc2s1` [CBK268202] stands 101.783; under `CN(C)CCN(C)c1cncc(-c2ccc(Cl)cc2)n1` [CBK065724], 41.7152.

Values taken from publication PMC12040169 (PLOS Biology, 2025).
